Reference: a collection of fitness landscapes (doi:10.1126/science.1257360)
This is one part of the list.

B1: PhoQ; a variant is named by its letters at X, in order, P23837 (parent)
chain: MKKLLRLFFPLSLRVRFLLATAAVVLVLSLAYGMVALIGYSVSFDKTTFRLLRGESNLFYTLAKWENNKLHVELPENIDKQSPTMTLIYDENGQLLWAQRDVPWLMKMIQPDWLKSNGFHEIEADVNDTSLLLSGDHSIQQQLQEVREDDDDAEMTHSVAVNVYPATSRMPKLTIVVVDTIPVELKSSYMVWSWFIYVLSANLLLVIPLLWVAAWWSLRPIEALAKEVRELEEHNRELLNPATTRELTSLVRNLNRLLKSERERYDKYRTTLTDLTHSLKTPLXXLQXXLRSLRSEKMSVSDAEPVMLEQISRISQQIGYYLHRASMRGGTLLSRELHPVAPLLDNLTSALNKVYQRKGVNISLDISPEISFVGEQNDFVEVMGNVLDNACKYCLEFVEISARQTDEHLYIVVEDDGPGIPLSKREVIFDRGQRVDTLRPGQGVGLAVAREITEQYEGKIVAGESMLGGARMEVIFGRQHSAPKDE

Variants of: B1
Assay: enrichment ratio after two sorts for PhoP signalling (ratio (wild type AVST 3.29)); higher = more functional
Conditions: with PhoP (E. coli)

Variant | enrichment ratio
TKYT | ≤ 0.25
TQIG | ≤ 0.25
RHDY | ≤ 0.25
MPVC | ≤ 0.25
RILF | ≤ 0.25
SDIV | 9.06
IFKL | ≤ 0.25
WGVG | ≤ 0.25
PIMA | ≤ 0.25
NFKG | ≤ 0.25
TRWR | ≤ 0.25
NIDS | ≤ 0.25
EGMM | ≤ 0.25
MQDN | ≤ 0.25
WTAH | ≤ 0.25
LQVS | ≤ 0.25
FRTD | ≤ 0.25
TRVN | ≤ 0.25
KNNC | ≤ 0.25
KNYD | ≤ 0.25
IDFR | ≤ 0.25
WPYC | ≤ 0.25
NSAC | ≤ 0.25
DAIG | ≤ 0.25
NMHG | 2.36

Variant | enrichment ratio
RKVF | ≤ 0.25
GCCI | 5.84
RPQL | ≤ 0.25
TRWL | ≤ 0.25
YVYY | ≤ 0.25
RWTK | ≤ 0.25
YGQW | ≤ 0.25
GQNM | ≤ 0.25
YHQD | ≤ 0.25
MFFS | ≤ 0.25
NGKD | ≤ 0.25
LATH | ≤ 0.25
HSFK | ≤ 0.25
FYLP | ≤ 0.25
RKPY | ≤ 0.25
WSMW | ≤ 0.25
TYYD | ≤ 0.25
GTDP | ≤ 0.25
LTHR | ≤ 0.25
VHKE | ≤ 0.25
NHSG | ≤ 0.25
YFYK | ≤ 0.25
IPEW | ≤ 0.25
MQRI | ≤ 0.25
VCPQ | ≤ 0.25

Variant | enrichment ratio
MDNW | ≤ 0.25
DLVV | ≤ 0.25
IGWW | ≤ 0.25
YPGD | ≤ 0.25
SIWF | ≤ 0.25
NMVI | ≤ 0.25
YDPK | ≤ 0.25
GRKC | ≤ 0.25
TVKK | ≤ 0.25
SFRE | ≤ 0.25
DVVF | ≤ 0.25
TSHF | 13.4
EHNQ | ≤ 0.25
VQDH | ≤ 0.25
TVIT | ≤ 0.25
IEQH | ≤ 0.25
VNGI | ≤ 0.25
FSFL | 1.26
SIYW | ≤ 0.25
RTIT | ≤ 0.25
VGVH | ≤ 0.25
FLII | ≤ 0.25
RPGY | ≤ 0.25
GQKA | ≤ 0.25
WFPL | ≤ 0.25

Variant | enrichment ratio
LTRM | ≤ 0.25
ETCC | ≤ 0.25
DNRY | ≤ 0.25
SWTS | ≤ 0.25
GEPF | ≤ 0.25
NNDC | ≤ 0.25
NVVI | ≤ 0.25
HVPI | ≤ 0.25
VCDK | ≤ 0.25
FSCL | 8.2
QEMF | ≤ 0.25
LIAN | ≤ 0.25
MKHF | ≤ 0.25
HPNT | ≤ 0.25
ELTR | ≤ 0.25
RRSI | ≤ 0.25
EVPP | ≤ 0.25
WEWD | ≤ 0.25
DPKM | ≤ 0.25
MPRE | ≤ 0.25
WKWI | ≤ 0.25
FNKQ | ≤ 0.25
FDMI | ≤ 0.25
KDLL | ≤ 0.25
MVHY | ≤ 0.25

Variant | enrichment ratio
SCDQ | ≤ 0.25
IGYR | ≤ 0.25
YNEL | ≤ 0.25
RCMC | ≤ 0.25
ETAC | ≤ 0.25
VMAW | ≤ 0.25
FNCC | ≤ 0.25
YIKK | ≤ 0.25
DRGW | ≤ 0.25
LASQ | ≤ 0.25
YEKK | ≤ 0.25
WHLM | ≤ 0.25
TCFH | ≤ 0.25
GMCH | 16.1
FCKG | ≤ 0.25
MRKL | ≤ 0.25
MEME | ≤ 0.25
VIQV | ≤ 0.25
SHPS | ≤ 0.25
FERA | ≤ 0.25
SRMT | 0.372
HWKI | ≤ 0.25
QTGR | ≤ 0.25
MYFY | ≤ 0.25
LSCW | ≤ 0.25

Variant | enrichment ratio
VACI | ≤ 0.25
QLPV | ≤ 0.25
FGTM | ≤ 0.25
ARMN | ≤ 0.25
TTHM | 9.81
FSFT | ≤ 0.25
AAQG | ≤ 0.25
PEIA | ≤ 0.25
YRNY | ≤ 0.25
FSTN | ≤ 0.25
HYER | ≤ 0.25
HGNK | ≤ 0.25
YYNC | ≤ 0.25
ARFL | ≤ 0.25
IMWI | ≤ 0.25
EAFF | ≤ 0.25
AQAE | ≤ 0.25
EQFH | ≤ 0.25
VKRY | ≤ 0.25
LLWS | ≤ 0.25
KERA | 3.14
RDKA | ≤ 0.25
WDYR | ≤ 0.25
MCNP | ≤ 0.25
RHEK | ≤ 0.25

Variant | enrichment ratio
GENY | ≤ 0.25
SFYC | ≤ 0.25
RSFP | ≤ 0.25
TIGV | 9.86
KGPC | ≤ 0.25
ERFG | ≤ 0.25
PMYS | ≤ 0.25
VCIK | ≤ 0.25
KYQP | ≤ 0.25
KRKY | ≤ 0.25
VFQG | ≤ 0.25
LQAY | ≤ 0.25
STDL | ≤ 0.25
GMWR | ≤ 0.25
HLHF | ≤ 0.25
EGYY | ≤ 0.25
AMHC | ≤ 0.25
GTPV | ≤ 0.25
LNVM | ≤ 0.25
LPKI | ≤ 0.25
YQWF | ≤ 0.25
PVGW | ≤ 0.25
RWKP | ≤ 0.25
NMYS | ≤ 0.25
WNKV | ≤ 0.25

Variant | enrichment ratio
ACDC | ≤ 0.25
GQRV | ≤ 0.25
FFED | ≤ 0.25
FSDC | ≤ 0.25
MVMH | ≤ 0.25
KSFI | ≤ 0.25
YNLA | 0.304
HGGE | ≤ 0.25
VENH | ≤ 0.25
QLMQ | ≤ 0.25
EYHH | ≤ 0.25
DMRV | ≤ 0.25
AIMG | 6.65
IVGH | ≤ 0.25
YGMY | ≤ 0.25
LLNF | ≤ 0.25
GPAR | ≤ 0.25
WECI | 0.414
FCFT | ≤ 0.25
PSGY | ≤ 0.25
